{"sequences": {"note": "The chains behind the UniProt entries cited, without tags or fusion partners. Residues count along the entry.", "UniProt P97772, residues 21-1199": "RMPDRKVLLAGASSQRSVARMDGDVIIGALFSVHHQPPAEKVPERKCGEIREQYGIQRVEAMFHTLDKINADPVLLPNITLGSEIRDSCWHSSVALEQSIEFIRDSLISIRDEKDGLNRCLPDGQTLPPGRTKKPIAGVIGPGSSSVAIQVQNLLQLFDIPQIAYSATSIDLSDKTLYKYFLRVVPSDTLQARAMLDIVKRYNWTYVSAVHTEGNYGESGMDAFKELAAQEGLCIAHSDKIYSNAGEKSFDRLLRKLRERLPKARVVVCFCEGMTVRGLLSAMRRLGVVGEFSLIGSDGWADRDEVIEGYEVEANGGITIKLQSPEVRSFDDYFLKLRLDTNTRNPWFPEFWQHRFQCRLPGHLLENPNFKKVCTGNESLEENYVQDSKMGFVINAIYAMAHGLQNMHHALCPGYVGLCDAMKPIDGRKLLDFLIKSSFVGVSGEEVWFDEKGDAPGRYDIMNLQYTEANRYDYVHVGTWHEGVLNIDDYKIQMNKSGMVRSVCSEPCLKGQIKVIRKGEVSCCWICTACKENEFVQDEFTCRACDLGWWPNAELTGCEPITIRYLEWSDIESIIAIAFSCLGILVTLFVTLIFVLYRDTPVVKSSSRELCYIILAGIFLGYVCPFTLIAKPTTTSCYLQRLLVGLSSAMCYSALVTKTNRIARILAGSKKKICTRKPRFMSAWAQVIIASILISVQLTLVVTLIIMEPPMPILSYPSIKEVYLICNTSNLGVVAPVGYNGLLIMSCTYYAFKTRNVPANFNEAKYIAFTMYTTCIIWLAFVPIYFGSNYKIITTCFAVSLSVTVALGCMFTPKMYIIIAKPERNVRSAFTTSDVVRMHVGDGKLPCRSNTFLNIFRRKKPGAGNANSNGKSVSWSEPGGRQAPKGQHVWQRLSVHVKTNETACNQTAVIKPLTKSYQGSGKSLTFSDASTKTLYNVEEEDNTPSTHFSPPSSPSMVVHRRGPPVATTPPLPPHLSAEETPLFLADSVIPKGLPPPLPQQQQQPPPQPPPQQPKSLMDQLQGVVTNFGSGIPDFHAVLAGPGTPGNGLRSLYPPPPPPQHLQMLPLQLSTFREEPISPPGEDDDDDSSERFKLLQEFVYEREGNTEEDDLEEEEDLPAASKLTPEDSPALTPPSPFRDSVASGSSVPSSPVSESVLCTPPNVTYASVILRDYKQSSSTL", "UniProt Q3UVX5, residues 19-1203": "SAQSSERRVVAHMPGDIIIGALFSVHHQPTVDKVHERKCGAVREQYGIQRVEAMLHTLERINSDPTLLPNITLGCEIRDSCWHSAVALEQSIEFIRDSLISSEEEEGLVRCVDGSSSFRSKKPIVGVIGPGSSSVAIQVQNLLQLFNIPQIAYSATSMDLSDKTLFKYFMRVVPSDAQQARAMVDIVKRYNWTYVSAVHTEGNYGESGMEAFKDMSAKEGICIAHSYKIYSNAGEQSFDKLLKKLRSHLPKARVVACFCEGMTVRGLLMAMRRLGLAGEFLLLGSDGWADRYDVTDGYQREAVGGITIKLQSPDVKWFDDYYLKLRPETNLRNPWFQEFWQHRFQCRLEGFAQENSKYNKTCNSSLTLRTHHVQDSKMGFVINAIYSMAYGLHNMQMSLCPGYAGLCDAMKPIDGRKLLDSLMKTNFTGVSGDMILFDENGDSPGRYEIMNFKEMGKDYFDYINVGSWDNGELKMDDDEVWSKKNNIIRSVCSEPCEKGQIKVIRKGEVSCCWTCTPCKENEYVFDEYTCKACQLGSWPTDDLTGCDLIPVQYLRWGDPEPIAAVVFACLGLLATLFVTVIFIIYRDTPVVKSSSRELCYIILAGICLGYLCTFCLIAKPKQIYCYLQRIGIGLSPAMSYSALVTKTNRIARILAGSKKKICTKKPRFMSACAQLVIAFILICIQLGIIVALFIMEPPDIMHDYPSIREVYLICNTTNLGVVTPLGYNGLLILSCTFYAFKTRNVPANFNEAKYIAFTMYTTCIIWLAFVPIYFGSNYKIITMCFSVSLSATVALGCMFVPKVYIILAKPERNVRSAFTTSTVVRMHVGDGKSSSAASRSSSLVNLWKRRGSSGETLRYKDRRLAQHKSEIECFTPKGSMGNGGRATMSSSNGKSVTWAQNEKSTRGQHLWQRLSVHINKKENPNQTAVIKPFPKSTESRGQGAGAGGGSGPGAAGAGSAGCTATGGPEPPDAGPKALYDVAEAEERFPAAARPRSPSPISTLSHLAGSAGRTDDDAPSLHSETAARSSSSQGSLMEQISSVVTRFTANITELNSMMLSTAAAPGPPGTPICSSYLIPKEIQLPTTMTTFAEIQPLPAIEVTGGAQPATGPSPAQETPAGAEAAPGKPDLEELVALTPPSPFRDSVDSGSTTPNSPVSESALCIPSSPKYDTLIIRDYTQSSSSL"}, "source": "paper PMC5720820", "key": {"[1]": {"biological_target": "metabotropic glutamate receptor 1 (mGluR1) (mouse (endogenous in brain)) (UniProt P97772)", "assay": "co-IP"}, "[2]": {"biological_target": "metabotropic glutamate receptor 5 (mGluR5) (mouse (endogenous in brain)) (UniProt Q3UVX5)", "assay": "co-IP"}}, "note": "Results are given in words; binding and its absence hold for the method and conditions named. In cells and extracts the contact can be indirect. Some binding calls cover weakened binding; strength is not graded here."}
{"substance": "PrP^C overexpressed in tga20 mice (from UniProt P04925 23-230)", "values": [{"measurement": "binding", "setting": "[1]", "result": "binds"}, {"measurement": "binding", "setting": "[2]", "result": "binds"}]}
